Measurements: paper PMC12040169 (PLOS Biology, 2025)
Like-named read-outs stand apart in the source and are kept apart here. The list shows a part of the results.

System: T1, C. trachomatis L2/434/Bu expressing GFP (CTL2-GFP)
T1 construct: L2/434/Bu GFP intracellular growth in HeLa cells
Design: species or system HeLa; C. trachomatis total inclusion area by high-content imaging, normalised to DMSO
Outline: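 Bulk GFP and resorufin signals were read first. Wells were then fixed, stained with Hoechst and imaged to detect GFP inclusions and host nuclei. MICs followed the previously described calculation.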

[1] = total inclusion area; 28.5 h, 10 µM; inhibitor

Row | Compound | % of control remaining [1] | % of control remaining (total inclusion area, 28.5 h, 10 µM, inhibitor)
1 | COC(=O)c1ccc(COc2nc3ccccc3nc2/C=C/c2cccc([N+](=O)[O-])c2)cc1 [CBK268776] | 101.595 | 
2 | CCC(O)c1cc2n(n1)CCN(C(=O)c1cn(-c3ccccc3)nn1)C2 (stereo not drawn) [CBK306708] | 71.644 | 
3 | O=C(CN1CCOCC1)N1CCc2ccccc21 [CBK200271] | 75.2684 | 
4 | Cc1cccc(C(=O)N2CCN(Cc3cc(=O)n4ccsc4n3)CC2)c1 [CBK305037] | 74.0389 | 
5 | Nc1ncc(-c2ccncc2)nc1NCc1cccnc1 [CBK063879] | 129.478 | 
6 | COc1cc(-c2cncc(NCCc3ccncc3)n2)cc(OC)c1OC [CBK065405] | 127.188 | 
7 | COc1ccc(NC(=O)c2c(NC(=O)CN3CCCC(C)C3)sc3c2CCC3)cc1 (stereo not drawn) [CBK265061] | 106.07 | 
8 | O=C(O)c1ccc2c(c1)C(=O)N(c1ccc(/C=C/C(=O)c3ccccc3)cc1)C2=O [CBK261181] | 102.006 | 
9 | Cc1ccc2cccc(OS(=O)(=O)c3ccc(Cl)c(C)c3Cl)c2n1 [CBK263984] | 74.4292 | 
10 | OCc1ccccc1-c1cncc(NCCc2c[nH]c3ccccc23)n1 [CBK037852] | 88.9113 | 
11 | O=C(Cn1c(=O)cc(O)c2ccccc21)N1CCN(c2ccccn2)CC1 [CBK291117] | 106.518 | 
12 | CCOC(=O)CCNC(=O)c1cc2cccc(OC)c2o1 [CBK149816] | 104.758 | 
13 | COc1ccc(Nc2cc(-c3ccc(SC)cc3)ncn2)c(C)c1 [CBK091042] | 107.323 | 
14 | COc1ccc(OC(C)C(=O)Nc2ccc(S(N)(=O)=O)cc2)cc1 (stereo not drawn) [CBK263646] | 106.695 | 
15 | O=C(O)CC(NC(=O)c1ccccc1)c1ccco1 (stereo not drawn) [CBK268843] | 106.894 | 
16 | CCc1nnc(CN2CCCC(c3cc(C(N)=O)[nH]n3)C2)o1 (stereo not drawn) [CBK305213] | 28.7406 | 
17 | C(=C\c1cccc(Nc2ccc(Oc3ccccc3)cc2)n1)/c1ccccc1 [CBK037614] | 96.3627 | 
18 | FC(F)(F)Oc1ccc(-c2cncc(N3CCN(c4ccncc4)CC3)n2)cc1 [CBK059230C] | 70.3241 | 
19 | CCCn1ncnc1C(C)NC(=O)Nc1ccnn1CC(C)C (stereo not drawn) [CBK307545] | 84.7895 | 
20 | Cc1nc2c(c(=O)[nH]1)CN(Cc1cc(F)ccc1F)CC2 [CBK283953] | 94.3362 | 
21 | Nc1ncnc(NCCc2ccccc2)n1 [CBK262701] | 83.1162 | 

Row | Compound | % of control remaining [1] | % of control remaining (total inclusion area, 28.5 h, 10 µM, inhibitor)
22 | NC1CC(c2cc(NCCCc3nnc4ccccn34)ncn2)C1 (stereo not drawn) [CBK307120] | 56.298 | 
23 | CC(C)(N)CN(Cc1ccc(Cl)cc1)C(=O)Nc1ccccc1-c1ccccc1 [CBK004924] | 91.4096 | 
24 | O=S(=O)(c1ccc(Cl)c(Cl)c1)c1ccc2nccc(N3CCNCC3)c2c1 [CBK036497C] | 77.3232 | 
25 | CCOC(=O)c1c(C)oc2ccc(O)c(CN3CCCCC3)c12 [CBK263838C] | 101.965 | 
26 | CN1CCC(N2CC[C@H](c3nnc(-c4cncn4C)o3)C2)CC1 [CBK289403] | 98.7112 | 
27 | CC1CCN(Cc2c(O)ccc3occ(C(=O)c4ccccc4)c23)CC1 [CBK111319] | 94.426 | 
28 | CN1CCN(Cc2c(C3CCCC3)[nH]c3ncccc23)CC1 [CBK285336] | 74.7961 | 
29 | CN1CCN(C(=O)CCCN2C(=O)c3cccc4cccc(c34)C2=O)CC1 [CBK262383] | 114.576 | 
30 | CC1(C)CC(=O)C(C(=S)Nc2ccccc2)=C(O)C1 [CBK288395] | 51.9113 | 
31 | O=C(O)Cc1ccc(NC(=S)Nc2ccc([N+](=O)[O-])cc2)cc1 [CBK266959] | 114.193 | 
32 | CN(Cc1ccccc1)C1CCN(Cc2ccccn2)CC1 [CBK264622G] | 111.344 | 
33 | CCOC(=O)CCNC(=O)C1(c2ccccc2)CCCC1 [CBK149543] | 100.721 | 
34 | COc1ccc2c(c1)c(C(=O)NCCn1nc(C)cc1C)c(C)n2C [CBK304615] | 41.4661 | 
35 | CSCCN1CCC(Oc2cncc(OCC3COc4ccccc4O3)n2)C1 (stereo not drawn) [CBK084381] | 89.09 | 
36 | O=C(O)c1ccc(CNCc2c(F)cccc2Cl)cc1 [CBK269496] |  | 99.6625
37 | Cc1ccc(C(C)C)c(OCc2ccc(C(=O)O)o2)c1 [CBK078089] | 97.2005 | 
38 | CCc1ccc(NC(=N)Nc2nc(CSc3ncccn3)cc(=O)[nH]2)cc1 [CBK268836] | 109.628 | 
39 | OCc1ccccc1-c1cn2ccnc2c(Nc2ccccc2)n1 [CBK037999] | 122.45 | 
40 | Cc1ccccc1NC(=O)NCCCN1CCN(C)CC1 [CBK267837] | 99.8969 | 
41 | CCOc1ccc(-n2c(N)c(C(=O)NCc3ccco3)sc2=S)cc1 [CBK265578] | 102.839 | 
42 | COc1ccc(S(=O)(=O)N2CCN(C(=O)c3cc(-c4cccnc4)nc4c(C)cc(C)cc34)CC2)cc1OC [CBK267767] | 73.5341 | 

Row | Compound | % of control remaining [1] | % of control remaining (total inclusion area, 28.5 h, 10 µM, inhibitor)
43 | Cc1nc(CCNC(=O)c2nn(-c3cccc(C(C)C)c3)cc2O)cs1 [CBK305438] | 144.37 | 
44 | O=C(Nc1ccc(N2CCNCC2)nc1)C1CCC1 [CBK004743T] | 113.886 | 
45 | O=C(CCN1C(=O)c2ccccc2C1=O)N1CCOCCOCCN(C(=O)CCN2C(=O)c3ccccc3C2=O)CCOCCOCC1 [CBK260964] | 91.7156 | 
46 | Cc1occc1-c1nn(C2CCNCC2)c(=O)o1 [CBK284757] | 85.4205 | 
47 | Cc1ccc(C(=O)Nc2ncn(CC(=O)N3CCCCCC3)n2)cc1 [CBK304569] | 37.594 | 
48 | O=C(CCC(=O)c1ccc2c(c1)Cc1ccccc1-2)Nc1ccc(C(=O)O)cc1 [CBK268673] | 103.255 | 
49 | CCc1c(C)nc2ccccc2c1SCC(=O)O [CBK153279] | 107.83 | 
50 | COc1cccc(-c2nnc(SCc3nc4ccccc4[nH]3)n2N)c1 [CBK267549] | 105.749 | 
51 | Cn1sc(=O)c2cc(S(=O)(=O)NC3CC3)ccc21 [CBK009163] | 75.723 | 
52 | O=C(c1cc(F)c(F)cc1F)N1CCC2(CCN(Cc3nc4ccccc4[nH]3)C2)C1 (stereo not drawn) [CBK132134] | 90.9262 | 
53 | COc1ccccc1OCCn1c(=N)n(CC(N)=O)c2ccccc21 [CBK268822C] | 105.916 | 
54 | Cc1ccc(NC(=O)CSCc2nc3ccccc3[nH]2)cc1 [CBK267299] | 103.645 | 
55 | Cc1nnc(S)n(Cc2ccc(F)cc2)c1=O [CBK288502] | 114.139 | 
56 | C[C@H](Nc1nccnc1-c1cccc(O)c1)c1ccccc1 [CBK037180] | 95.0445 | 
57 | CC(=O)NCCSc1ccc(C(F)(F)F)cn1 [CBK105298] | 95.2263 | 
58 | Cc1cc2nc(-c3ccc(C(=O)O)cc3)[nH]c2cc1C [CBK096054] | 121.468 | 
59 | COc1ccc(CNC(=O)Cn2nc3c(SCc4ccc(Cl)cc4)nccn3c2=O)cc1 [CBK300541] | 93.7583 | 
60 | O=C(c1ccc2nccnc2c1)N1CCCc2ccccc21 [CBK200257] | 41.208 | 
61 | COc1ccccc1N1CCN(C(=O)NCCCN2CCCC2=O)CC1 [CBK155612] | 95.0514 | 
62 | O=C1N[C@@H]2CCN(Cc3cnccn3)C[C@H]2C/C=C/CC2(CCOCC2)C(=O)N[C@H]1Cc1ccccc1 [CBK292189] | 86.526 | 
63 | COc1ccc(Cl)cc1NC(=O)COc1cccc2ccccc12 [CBK262995] | 101.144 | 

Row | Compound | % of control remaining [1] | % of control remaining (total inclusion area, 28.5 h, 10 µM, inhibitor)
64 | O=C(CSCc1ccccc1)Nc1ccc(S(=O)(=O)N2CCOCC2)cc1 [CBK087885] | 117.92 | 
65 | COc1ccc(Cl)cc1NC(=O)CN(c1cc([N+](=O)[O-])ccc1C)S(C)(=O)=O [CBK266394] | 115.947 | 
66 | O=C(NC/C=C/c1cn(C2OC(CO)C(O)C2O)c(=O)[nH]c1=O)C(F)(F)F (stereo not drawn) [CBK201298] | 83.7079 | 
67 | Cc1cc2cn([C@H]3C[C@@H](O)[C@@H](CO)O3)c(=O)nc2o1 [CBK201287] | 106.518 | 
68 | O=C(NCc1cccc(OCC2CCCO2)c1)C1C2CCCCC21 (stereo not drawn) [CBK281517] | 96.952 | 
69 | C/C(=N/OCO/N=C(\C)c1cccc([N+](=O)[O-])c1)c1cccc([N+](=O)[O-])c1 [CBK260872] | 97.003 | 
70 | O=C(O)C1Nc2c(Cl)cc(Cl)cc2C2C=CCC12 (stereo not drawn) [CBK077855] | 106.199 | 
71 | O=C(c1cc[nH]c1)N1CCN(C(=O)c2ccco2)CC1 [CBK144467] | 100.279 | 
72 | CC(C)(C)c1ccc(NC(=O)n2ccc3c(N4CCNCC4)cccc32)cc1 [CBK003736C] | 0 | 
73 | N#Cc1ccc(Cn2cnc(NC(=O)c3cnccn3)n2)cc1 [CBK305233] | 54.5866 | 
74 | O=C(Nc1ccccc1C(F)(F)F)NC1CC2CCCC(C1)N2C1CC1 (stereo not drawn) [CBK143578] | 105.47 | 
75 | Cc1cc(NC(=O)c2cccc(C#N)c2)c2ccccc2n1 [CBK116267] | 110.363 | 
76 | CC(C)Cn1cnc2c(c1=N)C(c1ccccc1)c1ccc(O)cc1O2 (stereo not drawn) [CBK287864] | 110.17 | 
77 | CCn1c2ccccc2c2cc(NC(=O)CC(C)CC(=O)O)ccc21 (stereo not drawn) [CBK300031] | 79.878 | 
78 | COCCCNC(=O)Cn1cnc2sc(C)cc2c1=O [CBK071899] | 98.875 | 
79 | c1ccc(Oc2ccccc2-c2cc(NCCc3c[nH]cn3)ncn2)cc1 [CBK037845] | 63.174 | 
80 | O=C(NC(c1ccc(Cl)cc1)c1cnccn1)C1CCN(C(=O)N2CCOCC2)CC1 (stereo not drawn) [CBK059635] | 104.945 | 
81 | CC(=O)N[C@H]1CC[C@]2(C)CCC([C@H](C)C(=O)N(C)Cc3ccccc3)[C@H](O)[C@H]2[C@@H]1C (stereo partly drawn) [CBK289435] | 91.3026 | 
